In the supplement of paper PMC12645437, “Orthogonal IMiD-Degron Pairs Induce Selective Protein Degradation in Cells” (ACS Chemical Biology, 2025):
The other results are listed elsewhere or left out.

B1: Q9UKT9 (peptide)
chain: LACPICGFMCTQKGNLLRHIKL
B2: Q9UKT9 (peptide)
chain: LSCNQCGFTCTQKGNLLRHIKL
B3: Q9UKT9 (peptide)
chain: FSCPVCGAKFTQKGNLLRHIKL
B4: Q9UKT9 (peptide)
chain: FMCPQCGANFTQKGNLLRHIKL
B5: Q9UKT9 (peptide)
chain: FFCPICGARFTQKGNLLRHIKL
B6: Q9UKT9 (peptide)
chain: FDCNQCGAAFTQKGNLLRHIKL
B7: Q9UKT9 (peptide)
chain: LWCNQCGFMCTQKGNLLRHIKL
B8: Q9UKT9 (peptide)
chain: FFCDVCGAFFTQKGNLLRHIKL
B9: Q9UKT9 (peptide)
chain: FDCEICGHCFTQKGNLLRHIKL
B10: Q9UKT9 (peptide)
chain: FACNQCGAQFTQKGNLLRHIKL
B11: Q9UKT9 (peptide)
chain: LRCEICGFLCTQKGNLLRHIKL
B12: Q9UKT9 (peptide)
chain: LDCNQCGFACTQKGNLLRHIKL
B13: Q9UKT9 (peptide)
chain: FGCNQCGAIFTQKGNLLRHIKL
B14: Q9UKT9 (peptide)
chain: FKCNVCGALFTQKGNLLRHIKL
B15: Q9UKT9 (peptide)
chain: FQCDQCGAVFTQKGNLLRHIKL
B16: Q9UKT9 (peptide)
chain: FCCNQCGHLFTQKGNLLRHIKL
B17: Q9UKT9 (peptide)
chain: FICDICGAYFTQKGNLLRHIKL
B18: Q9UKT9 (peptide)
chain: LGCEICGFMCTQKGNLLRHIKL
B19: Q9UKT9 (peptide)
chain: FNCNQCGHIFTQKGNLLRHIKL
B20: Q9UKT9 (peptide)
chain: FFCNVCGAHFTQKGNLLRHIKL
B21: Q9UKT9 (peptide)
chain: FMCNQCGAIFTQKGNLLRHIKL
B22: Q9UKT9 (peptide)
chain: FACEICGRQFTQKGNLLRHIKL
B23: Q9UKT9 (peptide)
chain: FDCEICGRMFTQKGNLLRHIKL
B24: Q9UKT9 (peptide)
chain: FFCEQCGADFTQKGNLLRHIKL
B25: Q9UKT9 (peptide)
chain: FNCDICGAAFTQKGNLLRHIKL
B26: Q9UKT9 (peptide)
chain: FVCNQCGRGFTQKGNLLRHIKL
B27: Q9UKT9 (peptide)
chain: FHCDQCGACFTQKGNLLRHIKL
B28: Q9UKT9 (peptide)
chain: FHCSVCGHIFTQKGNLLRHIKL
B29: Q9UKT9 (peptide)
chain: LECNQCGFKCTQKGNLLRHIKL
B30: Q9UKT9 (peptide)
chain: LQCNQCGFWCTQKGNLLRHIKL
B31: Q9UKT9 (peptide)
chain: FSCEICGHLFTQKGNLLRHIKL
B32: Q9UKT9 (peptide)
chain: FNCNQCGHPFTQKGNLLRHIKL
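Also: jurkat cells carrying a lentiviral library of mutant zinc finger degrons fused to EGFP plus mCherry, mCherry+ cells FACS sorted, degron abundance counted by next-generation sequencing.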

These sequences were tested against no compound (DMSO) (assay: log2 fold change of degron read counts, EGFP-low vs EGFP+ sorted cells; higher = lower degron-EGFP level without compound (poor expression or instability)). Details: compound: DMSO control; 18 h.
B1 was tested, and the “log2 fold change of degron read counts” value was 0.962. For B2, the “log2 fold change of degron read counts” value was 0.398. B3 was tested, and the “log2 fold change of degron read counts” value was -0.677. B4 was tested, and the “log2 fold change of degron read counts” value was -0.956. For B5, the “log2 fold change of degron read counts” value was -0.105. B6 was tested, and the “log2 fold change of degron read counts” value was -0.41. For B7, the “log2 fold change of degron read counts” value was 2.07. For B8, the “log2 fold change of degron read counts” value was 0.382. With B9 the “log2 fold change of degron read counts” value was -0.532. In the case of B10, the “log2 fold change of degron read counts” value is reported as -1.1. For B11, the “log2 fold change of degron read counts” value was 0.452. For B12, the “log2 fold change of degron read counts” value was 0.573. With B13 the “log2 fold change of degron read counts” value was 0.602. In the case of B14, the “log2 fold change of degron read counts” value is reported as -0.354. For B15, the “log2 fold change of degron read counts” value was -1.21. B16 was tested, and the “log2 fold change of degron read counts” value was 0.489. In the case of B17, the “log2 fold change of degron read counts” value is reported as -0.485. B18 was tested, and the “log2 fold change of degron read counts” value was 1.05. For B19, the “log2 fold change of degron read counts” value was 0.808. For B20, the “log2 fold change of degron read counts” value was 0.058. B21 was tested, and the “log2 fold change of degron read counts” value was 0.661. B22 was tested, and the “log2 fold change of degron read counts” value was -0.929. For B23, the “log2 fold change of degron read counts” value was -0.438. For B24, the “log2 fold change of degron read counts” value was -1.26. For B25, the “log2 fold change of degron read counts” value was -0.671. B26 was tested, and the “log2 fold change of degron read counts” value was -1.59. With B27 the “log2 fold change of degron read counts” value was -1.87. In the case of B28, the “log2 fold change of degron read counts” value is reported as 0.314. With B29 the “log2 fold change of degron read counts” value was -0.961. In the case of B30, the “log2 fold change of degron read counts” value is reported as 0.791. B31 was tested, and the “log2 fold change of degron read counts” value was -0.425. For B32, the “log2 fold change of degron read counts” value was -0.831.
